Measured values reported in paper PMC4336329 (PLoS ONE, 2015).
Among all 310,000 compounds or so, about 14,000 (4.5%) showed an effect of 50% or more. The effect is printed as a negative number. The list shows a part of the results.

Biological target: human ether-à-go-go-related gene (hERG) potassium channel (human, UniProt Q12809)
Assay: primary screen, population patch clamp on CHO cells stably expressing hERG
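Further: peak tail current of the secondary pulse compared with the same well before compound.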

Sequence of human ether-à-go-go-related gene (hERG) potassium channel (Q12809 whole entry, looked up): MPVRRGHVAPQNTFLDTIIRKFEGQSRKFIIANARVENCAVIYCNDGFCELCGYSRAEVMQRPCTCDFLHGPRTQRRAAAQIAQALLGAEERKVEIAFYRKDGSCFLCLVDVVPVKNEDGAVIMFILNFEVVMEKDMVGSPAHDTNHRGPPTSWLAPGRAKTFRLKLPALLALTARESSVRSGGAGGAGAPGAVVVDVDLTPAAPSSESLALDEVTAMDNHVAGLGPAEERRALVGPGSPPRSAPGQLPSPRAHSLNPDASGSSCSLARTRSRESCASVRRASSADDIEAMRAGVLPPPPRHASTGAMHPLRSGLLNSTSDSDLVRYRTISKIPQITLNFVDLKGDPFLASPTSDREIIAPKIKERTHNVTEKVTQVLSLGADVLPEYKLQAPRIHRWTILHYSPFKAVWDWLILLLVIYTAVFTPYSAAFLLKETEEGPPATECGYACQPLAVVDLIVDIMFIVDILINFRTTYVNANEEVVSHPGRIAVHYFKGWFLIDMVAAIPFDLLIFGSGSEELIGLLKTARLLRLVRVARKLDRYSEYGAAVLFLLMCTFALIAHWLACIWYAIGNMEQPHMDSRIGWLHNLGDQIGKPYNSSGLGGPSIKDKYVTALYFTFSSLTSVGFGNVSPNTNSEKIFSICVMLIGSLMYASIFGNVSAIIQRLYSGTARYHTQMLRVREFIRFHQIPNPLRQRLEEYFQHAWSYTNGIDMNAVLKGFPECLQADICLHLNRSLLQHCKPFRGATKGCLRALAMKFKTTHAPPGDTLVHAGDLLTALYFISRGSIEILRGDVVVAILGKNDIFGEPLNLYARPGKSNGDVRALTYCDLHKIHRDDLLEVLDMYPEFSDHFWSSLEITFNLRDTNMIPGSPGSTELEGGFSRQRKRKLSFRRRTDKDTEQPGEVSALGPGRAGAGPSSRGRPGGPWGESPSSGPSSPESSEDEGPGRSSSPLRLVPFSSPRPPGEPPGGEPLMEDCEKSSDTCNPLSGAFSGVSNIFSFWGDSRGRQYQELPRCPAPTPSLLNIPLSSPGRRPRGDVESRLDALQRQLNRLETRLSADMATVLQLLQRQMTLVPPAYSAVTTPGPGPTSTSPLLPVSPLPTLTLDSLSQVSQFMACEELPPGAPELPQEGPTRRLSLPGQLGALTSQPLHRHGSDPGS

SMILES	hERG current change (%, negative = inhibition) at 10uM [%]
Cc1ccc(S(=O)(=O)c2ccc(Cl)cc2)cc1S(=O)(=O)N1CCN(C)CC1	-27
Cc1nc2cc(Cl)c(Cl)cc2nc1C	14.1
COc1cc(C(=O)NCC(=O)N/N=C/c2ccc(-c3ccc([N+](=O)[O-])cc3)o2)cc(OC)c1OC	3.23
O=C(O)/C=C/C(=O)Nc1nccs1	19.3
O=C(NCCOc1ccccc1-c1ccccc1)c1ccco1	1.75
COc1cc(/C=N/NS(=O)(=O)c2ccc(C)c([N+](=O)[O-])c2)cc([N+](=O)[O-])c1O	18.1
COc1ccc(OC)c(NC(=O)C2CCCN2C(=O)NC2CCCCC2)c1 (stereo not drawn)	-4.24
O=C(CCCc1ccccc1)Nc1cccc2c1CCCC2	-2.28
O=C(CCNC(=O)c1ccc([N+](=O)[O-])cc1)Nc1ccc(F)c(F)c1F	-10.2
CCOC(=O)c1ccc(N2CCOCC2)c(NC(=O)c2nccnc2C(=O)O)c1	15.1
O=C(O)CCCCCNS(=O)(=O)c1cccc2c1C(=O)c1ccccc1C2=O	-29.5
Cc1nc(CNS(=O)(=O)c2ccc(Oc3ccccc3)cc2)cs1	-22.3
O=C(CSc1ccccc1)NCc1ccc(F)cc1	-0.327
Cc1ccc(N(C(=O)c2csnn2)C(C(=O)NC(C)(C)C)c2ccccn2)cc1 (stereo not drawn)	15.4
CC(=O)c1ccc(NC(=O)C(C)NCc2ccc(Cl)cc2)cc1 (stereo not drawn)	16.2
CCOC(=O)C1(Cc2cccc(F)c2)CCN(C(=O)COC)CC1	7.65
N#Cc1ccccc1Sc1ccccc1C(=O)NCC(c1ccco1)N1CCCC1 (stereo not drawn)	-27.9
Cc1nn(Cc2ccccc2)c(C)c1C(=O)NCCN1C(=O)S/C(=C\c2ccccc2)C1=O	3.52
Cc1ccc(CCN2CC(C(=O)NCCCN3CCN(C)CC3)CC2=O)cc1 (stereo not drawn)	-8.81
CCC1(c2ccccc2)NC(=O)N(CC(=O)Nc2ccccc2N2CCCC2)C1=O (stereo not drawn)	1.38
Cc1ccccc1NC(=O)COC(=O)c1ccc2nc(C)c(C)nc2c1	15.2
COc1ccc(N(CC(=O)NC(C)(C)C)C(=O)CCC(=O)Nc2nccs2)cc1	3.94
O=C(COC(=O)c1ccccc1NC(=O)c1ccco1)NC1CCCCC1	-13.4
Cc1ccc(-n2nnnc2CN2CCCCC2)cc1	10.3
